Drawing on article PMC7819943, “Rice protein-binding microarrays: a tool to detect cis-acting elements near promoter regions in rice”, this text covers binding signal for 42 sequences.

Some of the results follow.

In this assay the target is T1, OsWOX13 (Oryza sativa, UniProt Q5QMM3 1-267).
T1 sequence: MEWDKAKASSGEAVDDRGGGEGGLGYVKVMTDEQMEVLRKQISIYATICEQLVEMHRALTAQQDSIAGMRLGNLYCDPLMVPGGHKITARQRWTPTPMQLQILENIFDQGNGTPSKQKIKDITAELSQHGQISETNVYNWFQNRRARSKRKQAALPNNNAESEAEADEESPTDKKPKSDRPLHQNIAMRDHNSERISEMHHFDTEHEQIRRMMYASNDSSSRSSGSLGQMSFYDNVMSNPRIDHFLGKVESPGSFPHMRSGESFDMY
The assay can be described thus: protein-binding microarray (RPBM); PBS, 2% BSA, 51.3 ng/ul salmon testes DNA, 50 uM zinc acetate, 200 nM TF, 25 C, 1 h; high values mean tight binding. The following applies: protein: recombinant; tags: N-terminal polyhistidine and DsRed monomer fusion (pET32a); label: CyDye5-dUTP incorporated in the synthesized complementary strand; 3' TTTTT single-stranded linker to array surface; dsDNA, one strand shown. The procedure, abridged: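 Polyhistidine-tagged DsRed fusions of transcription factors, joined at the N-terminus, were expressed in E. coli BL21-CodonPlus and isolated on Ni–NTA. They were incubated at 200 nM for 1 h at 25 °C on a custom Agilent array, double-stranded and BSA-blocked, in PBS with 2% BSA, salmon testes DNA and 50 µM zinc acetate. The binding signal is per-feature fluorescence intensity (arbitrary units) read on an Axon 4000B scanner after washing.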
Consider “AATCCAATTGAATAAATTATCTATGTTTAAAAGAGTAATGCGGAGTCACCTAGTGCAG”, for which the binding signal is 20100 fluorescence intensity (a.u.).

As for “AGGAAACGGTGATTTGTTTGACATGGAATTAACCTATCAGCGGAGTCACCTAGTGCAG”, the binding signal is 22100 fluorescence intensity (a.u.). For “GTTTAGCACTTAATCATATAATTATTACGATGGATCATTTCGGAGTCACCTAGTGCAG” the value was 7060 fluorescence intensity (a.u.); for “ACTGATTTTAGTAAATCTGGAAGGAAGCGTGGTGGCAAAGCGGAGTCACCTAGTGCAG”, 13700 fluorescence intensity (a.u.); for “CACAGATAGGCCGGTGATCAGATTTCAGATATTCCCCATTCGGAGTCACCTAGTGCAG”, 4440 fluorescence intensity (a.u.).

In the case of “ATGTCAGCAATGAAGGATTTGATTGCCAAGTAAGGCGGGTCGGAGTCACCTAGTGCAG”, the binding signal was 6410 fluorescence intensity (a.u.). For “ACTATTAAAACTAATAGATTTTATCCCTTTGAACGGTACGCGGAGTCACCTAGTGCAG” the value was 3160 fluorescence intensity (a.u.); for “TATCTAATTAATTCATTCGTTTACGTTATTGAATAATCCCCGGAGTCACCTAGTGCAG”, 33000 fluorescence intensity (a.u.). Under “CGTCGGGGTTGGGGTTGGGGCTGGGGCCGGCGCCGACGCCCGGAGTCACCTAGTGCAG” stands 4150 fluorescence intensity (a.u.).

Turning to “CGCTAACAGAACCTTCCGGTATGACCTAACAATGTTGTACCGGAGTCACCTAGTGCAG”, the binding signal is 9440 fluorescence intensity (a.u.).

“AAAATATGACTAACTATGACAGGTATGAACGGTGAGCTGCCGGAGTCACCTAGTGCAG”: the binding signal was 3800 fluorescence intensity (a.u.). For the sequence “TTAATGAACTGCTGACTGGACTGCTACGCGTACACCACGTCGGAGTCACCTAGTGCAG”, the binding signal is 8510 fluorescence intensity (a.u.).

In the case of “AAAACGTATGATTTAGTAGATTGGAAAGCATACAGATGAACGGAGTCACCTAGTGCAG”, the binding signal was 6530 fluorescence intensity (a.u.). Under “TAATACTTAATTAATCACGCACTAATATACCGCTCCATTTCGGAGTCACCTAGTGCAG” stands 22700 fluorescence intensity (a.u.). For “ATAGTTACACTGTAATTACACTATAGTTACACTACTATAGCGGAGTCACCTAGTGCAG” the value was 3340 fluorescence intensity (a.u.). Under “TTCCTCAAACTGATTGGAATTCTGATTATGTGTTGCATATCGGAGTCACCTAGTGCAG” stands 33900 fluorescence intensity (a.u.); under “TCTAATTACTTATTAATTAATTGATTTAATTAAATTAATCCGGAGTCACCTAGTGCAG”, 40400 fluorescence intensity (a.u.).

Regarding “AGTAGTAAATTAAACTTCACATGTTTAACGTTGTGGAACACGGAGTCACCTAGTGCAG”, the binding signal is 10200 fluorescence intensity (a.u.).

Take “TATTTGATAGCTTTATCCAAATAATCTTGTGTGCGAAAGCCGGAGTCACCTAGTGCAG”: the binding signal is 4720 fluorescence intensity (a.u.). For “GAGATAATGATTTACATTGTTTGTATATTGAGTTCTAAAACGGAGTCACCTAGTGCAG” the value was 11600 fluorescence intensity (a.u.); for “TCTGATGGATCAGCATGCACGTAGTGTACACGTCACTCCACGGAGTCACCTAGTGCAG”, 5750 fluorescence intensity (a.u.); for “TATTACTGAAAGAATAATTAGCAGTAAATACGAGCACACGCGGAGTCACCTAGTGCAG”, 8140 fluorescence intensity (a.u.). Under “TTTTGAGATTGAGAAAACACATATAGAAATTATACAGGATCGGAGTCACCTAGTGCAG” stands 7250 fluorescence intensity (a.u.); under “TACACCAAATTGACTAGGCATATATTTGTACCACTCATTCCGGAGTCACCTAGTGCAG”, 12500 fluorescence intensity (a.u.); under “TTAGATTATGGATGCACATCTTTACAGTTTGGAAATCCCTCGGAGTCACCTAGTGCAG”, 7090 fluorescence intensity (a.u.).

Regarding “CACAAACTTATGAAATCTATGATTAGTCAGCTAGCCGTTGCGGAGTCACCTAGTGCAG”, the binding signal is 8880 fluorescence intensity (a.u.). For “CTGCTAATTAGCTCCCTCTCTTCTTCATCCAAGCTAGCTACGGAGTCACCTAGTGCAG” the value was 30500 fluorescence intensity (a.u.).

“TTGTTTAAATTATTGTGTCTAACCTACGAGCCCAACCCAACGGAGTCACCTAGTGCAG”: the binding signal is 6180 fluorescence intensity (a.u.). For “TTCTTAATAATATACTACTAATTTCGATCGTCCCTTAATTCGGAGTCACCTAGTGCAG” the value was 5100 fluorescence intensity (a.u.); for “AGACAATTCAATAATTAATCTACACTTTCCTTCCGCACCTCGGAGTCACCTAGTGCAG”, 5880 fluorescence intensity (a.u.). For “TTATATAAATTATATATCGCACCATTAATACTTTGGTCTACGGAGTCACCTAGTGCAG” the value was 7960 fluorescence intensity (a.u.); for “TGCCAAAATTAATTTAAATTTGAAAAGGGTGAAGTTTTGTCGGAGTCACCTAGTGCAG”, 15600 fluorescence intensity (a.u.); for “ACATTTAAAATATCAAATTAATTTCATTAAATCTAACATTCGGAGTCACCTAGTGCAG”, 5900 fluorescence intensity (a.u.). For “CAATATTTAAATGATGGATTAAAAGAATTCATATATTTCGCGGAGTCACCTAGTGCAG” the value was 7400 fluorescence intensity (a.u.); for “AATCTGGTTTCAAAATTTATCAATTTAGCTTACCTGTTGACGGAGTCACCTAGTGCAG”, 5960 fluorescence intensity (a.u.); for “TCCAAATTGTAGTTAATTTTAAATTGTATTCCTACTTGAACGGAGTCACCTAGTGCAG”, 34700 fluorescence intensity (a.u.). As to “AGTTAATGAGGACGATGCACAAAATTTCATACTCGTGTCTCGGAGTCACCTAGTGCAG”, the binding signal is 3720 fluorescence intensity (a.u.). For “AGCCAAAGTGATAAATTAATGCAGTAGAGAGAGATTGGTGCGGAGTCACCTAGTGCAG”, the binding signal was 3950 fluorescence intensity (a.u.). For “AAATATACATCAAATCTAATTTGTATCCCTCAATTGCAATCGGAGTCACCTAGTGCAG” the value was 6290 fluorescence intensity (a.u.); for “CACTTCTGTACTTGGCGTGATTGGGCCGCGGACCGGTAGACGGAGTCACCTAGTGCAG”, 3750 fluorescence intensity (a.u.).

For the sequence “CAAATTTGATCAACCACACTAGTATAAATGCATCACAACTCGGAGTCACCTAGTGCAG”, the binding signal is 3370 fluorescence intensity (a.u.). Regarding “ATACCGTTTTATTTTGTAATTTACTCTCATCTTTATATAGCGGAGTCACCTAGTGCAG”, the binding signal was 3970 fluorescence intensity (a.u.).
